# Laboratory results as given in the supplement of paper PMC8728848.
# Some of the results follow.
# What was measured:
# Experiment in all cases: glycan array binding signal (z-score within array); higher = stronger binding
# Conditions in all cases: glycan notation: IUPAC condensed, linker removed
# [1] = target: Fuc(a1-3)[Gal3S(b1-4)]GlcNAc6S
# Outline: (§1)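 Negative Z-scores can be read as non-binding. The Z-score is calculated within each array and then averaged across arrays of one protein sequence at different concentrations or buffers and across linkers. Arrays, 3228 in all, were curated from the Consortium for Functional Glycomics database and kept only where the protein sequence was available.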
# [2] = target: Fuc(a1-3)[GalNAc(b1-4)]GlcNAc
# Outline: as §1
# [3] = target: Fuc(a1-3)[GalNAc(b1-4)]GlcNAc6S
# Outline: as §1
# Fuc(a1-4)GlcNAc = target: Fuc(a1-4)GlcNAc
# Outline: as §1
# Fuc(b1-3)GlcNAc = target: Fuc(b1-3)GlcNAc
# Outline: as §1
# Gal(a1-2)Gal = target: Gal(a1-2)Gal
# Outline: as §1
# Gal(a1-3)Gal = target: Gal(a1-3)Gal
# Outline: as §1
# Gal(a1-3)Gal(b1-3)GlcNAc = target: Gal(a1-3)Gal(b1-3)GlcNAc
# Outline: as §1
# [4] = target: Gal(a1-3)Gal(b1-3)GlcNAc(b1-2)Man
# Outline: as §1
# [5] = target: Gal(a1-3)Gal(b1-3)GlcNAc(b1-2)Man(a1-3)[Gal(a1-3)Gal(b1-3)GlcNAc(b1-2)Man(a1-6)]Man(b1-4)GlcNAc(b1-4)GlcNAc
# Outline: as §1
# [6] = target: Gal(a1-3)Gal(b1-3)GlcNAc(b1-3)GalNAc
# Outline: as §1
# [7] = target: Gal(a1-3)Gal(b1-3)GlcNAc(b1-6)GalNAc
# Outline: as §1
# [8] = target: Gal(a1-3)Gal(b1-3)[Fuc(a1-4)]GlcNAc(b1-2)Man(a1-3)[Gal(a1-3)Gal(b1-3)[Fuc(a1-4)]GlcNAc(b1-2)Man(a1-6)]Man(b1-4)GlcNAc(b1-4)GlcNAc
# Outline: as §1
# Gal(a1-3)Gal(b1-4)Glc = target: Gal(a1-3)Gal(b1-4)Glc
# Outline: as §1
# Gal(a1-3)Gal(b1-4)GlcNAc = target: Gal(a1-3)Gal(b1-4)GlcNAc
# Outline: as §1
# [9] = target: Gal(a1-3)Gal(b1-4)GlcNAc(b1-2)Man
# Outline: as §1
# [10] = target: Gal(a1-3)Gal(b1-4)GlcNAc(b1-2)Man(a1-3)[Gal(a1-3)Gal(b1-4)GlcNAc(b1-2)Man(a1-6)]Man(b1-4)GlcNAc(b1-4)GlcNAc
# Outline: as §1
# [11] = target: Gal(a1-3)Gal(b1-4)GlcNAc(b1-3)GalNAc
# Outline: as §1
# [12] = target: Gal(a1-3)Gal(b1-4)GlcNAc(b1-6)GalNAc
# Outline: as §1
# [13] = target: Gal(a1-3)Gal(b1-4)[Fuc(a1-3)]GlcNAc
# Outline: as §1
# [14] = target: Gal(a1-3)Gal(b1-4)[Fuc(a1-3)]GlcNAc(b1-2)Man(a1-3)[Gal(a1-3)Gal(b1-4)[Fuc(a1-3)]GlcNAc(b1-2)Man(a1-6)]Man(b1-4)GlcNAc(b1-4)GlcNAc
# Outline: as §1
# Gal(a1-3)GalNAc = target: Gal(a1-3)GalNAc
# Outline: as §1
# [15] = target: Gal(a1-3)[Gal(a1-4)]Gal(b1-4)GlcNAc
# Outline: as §1
# [16] = target: Gal(a1-4)Gal(b1-3)GlcNAc(b1-2)Man(a1-3)[Gal(a1-4)Gal(b1-3)GlcNAc(b1-2)Man(a1-6)]Man(b1-4)GlcNAc(b1-4)GlcNAc
# Outline: as §1
# Gal(a1-4)Gal(b1-4)Glc = target: Gal(a1-4)Gal(b1-4)Glc
# Outline: as §1
# Gal(a1-4)Gal(b1-4)GlcNAc = target: Gal(a1-4)Gal(b1-4)GlcNAc
# Outline: as §1
# [17] = target: Gal(a1-4)Gal(b1-4)GlcNAc(b1-2)Man(a1-3)[Gal(a1-4)Gal(b1-4)GlcNAc(b1-2)Man(a1-6)]Man(b1-4)GlcNAc(b1-4)GlcNAc
# Outline: as §1
# [18] = target: Gal(a1-4)Gal(b1-4)GlcNAc(b1-3)Gal(b1-4)Glc
# Outline: as §1
# Gal(a1-4)GlcNAc = target: Gal(a1-4)GlcNAc
# Outline: as §1
# Gal(a1-6)Glc = target: Gal(a1-6)Glc
# Outline: as §1
# Gal(b1-2)Gal = target: Gal(b1-2)Gal
# Outline: as §1
# Gal(b1-3)Gal = target: Gal(b1-3)Gal
# Outline: as §1
# Gal(b1-3)Gal(b1-4)GlcNAc = target: Gal(b1-3)Gal(b1-4)GlcNAc
# Outline: as §1
# Gal(b1-3)GalNAc = target: Gal(b1-3)GalNAc
# Outline: as §1
# [19] = target: Gal(b1-3)GalNAc(a1-3)[Fuc(a1-2)]Gal(b1-4)Glc
# Outline: as §1
# [20] = target: Gal(b1-3)GalNAc(a1-3)[Fuc(a1-2)]Gal(b1-4)GlcNAc
# Outline: as §1
# Gal(b1-3)GalNAc(b1-3)Gal = target: Gal(b1-3)GalNAc(b1-3)Gal
# Outline: as §1
binder,measurement,setting,value
B1257 (Bifidobacterium sp) (protein) MKKSIRLVAAIAALAMTAGISACGSSTNGNQAKSDVTAQDVETALTDTSKNVELTVWAYSAKQMEPTVKAFEKKYPHIKINFVNTGAAGDHFTKFQNVVQAQKDIPDVVQMGANKFQQFAVSGALLNFANDSIEKAWSKLYTKTAWAQVHYAGGLYGAPQDATPLANYVRKDILDEHNLQVPESWEDIYNEGIKLHKEDSNKYMGILGSDISFFTNLYRSVGARLWKVNSVDDVELTMNSGKAKEFTEFLQKCLKDGVLEGGTVFTDEFNRSINDGRYATFINENWMGNTYKEQNPSLKGKMVVAAPPSWKGQPYQSSSVGSMMSVSAACPKEKQAAALAFINWLDSDKDAIQSWQDTNNGNFFMAASVYQDDENQRNKKETDGYYANDDVNAVYFDSMDKVNTDWEYLPFMSQVEVVFNDVIVPQMNENGDLVGAMAKAQQELKTYAKDNGFKVTTDAD,glycan array binding signal (z-score),[1],0.008
same,glycan array binding signal (z-score),[2],0.046
same,glycan array binding signal (z-score),[3],-0.052
same,glycan array binding signal (z-score),Fuc(a1-4)GlcNAc,-0.062
same,glycan array binding signal (z-score),Fuc(b1-3)GlcNAc,-0.081
same,glycan array binding signal (z-score),Gal(a1-2)Gal,0.014
same,glycan array binding signal (z-score),Gal(a1-3)Gal,0.105
same,glycan array binding signal (z-score),Gal(a1-3)Gal(b1-3)GlcNAc,-0.093
same,glycan array binding signal (z-score),[4],0.005
same,glycan array binding signal (z-score),[5],0.027
same,glycan array binding signal (z-score),[6],-0.082
same,glycan array binding signal (z-score),[7],-0.182
same,glycan array binding signal (z-score),[8],0.147
same,glycan array binding signal (z-score),Gal(a1-3)Gal(b1-4)Glc,0.064
same,glycan array binding signal (z-score),Gal(a1-3)Gal(b1-4)GlcNAc,-0.015
same,glycan array binding signal (z-score),[9],-0.066
same,glycan array binding signal (z-score),[10],-0.023
same,glycan array binding signal (z-score),[11],-0.017
same,glycan array binding signal (z-score),[12],-0.213
same,glycan array binding signal (z-score),[13],-0.074
same,glycan array binding signal (z-score),[14],0.147
same,glycan array binding signal (z-score),Gal(a1-3)GalNAc,-0.077
same,glycan array binding signal (z-score),[15],-0.051
same,glycan array binding signal (z-score),[16],0.186
same,glycan array binding signal (z-score),Gal(a1-4)Gal(b1-4)Glc,-0.023
same,glycan array binding signal (z-score),Gal(a1-4)Gal(b1-4)GlcNAc,0.007
same,glycan array binding signal (z-score),[17],0.48
same,glycan array binding signal (z-score),[18],-0.183
same,glycan array binding signal (z-score),Gal(a1-4)GlcNAc,-0.131
same,glycan array binding signal (z-score),Gal(a1-6)Glc,-0.196
same,glycan array binding signal (z-score),Gal(b1-2)Gal,-0.153
same,glycan array binding signal (z-score),Gal(b1-3)Gal,-0.09
same,glycan array binding signal (z-score),Gal(b1-3)Gal(b1-4)GlcNAc,0.064
same,glycan array binding signal (z-score),Gal(b1-3)GalNAc,0.28
same,glycan array binding signal (z-score),[19],0.314
same,glycan array binding signal (z-score),[20],-0.014
same,glycan array binding signal (z-score),Gal(b1-3)GalNAc(b1-3)Gal,-0.134
